Measurements as given in PubChem BioAssay AID2147 (National Center for Advancing Translational Sciences (NCATS), 2009).
Out of some 230,000 compounds screened, about 3,600 (1.6%) were called active. Inconclusive means that the source gave no clear call. Such entries were picked first, then a sample of the others. Calls come from the whole dose curve; as a rule, active = well fitted inhibition curve with a large enough effect (not every such curve was filed as active); inconclusive = small, poorly fitted or top-dose-only effect, or another doubt; inactive = no such curve, though single readings can be large or run the other way. A potency beside an inconclusive call is a rough fit, not a confirmed value.

Target: Lysine-specific demethylase 4E (Homo sapiens) (UniProt B2RXH2)
Chain of UniProt B2RXH2 (B2RXH2 whole entry, looked up, the tested form may be a part): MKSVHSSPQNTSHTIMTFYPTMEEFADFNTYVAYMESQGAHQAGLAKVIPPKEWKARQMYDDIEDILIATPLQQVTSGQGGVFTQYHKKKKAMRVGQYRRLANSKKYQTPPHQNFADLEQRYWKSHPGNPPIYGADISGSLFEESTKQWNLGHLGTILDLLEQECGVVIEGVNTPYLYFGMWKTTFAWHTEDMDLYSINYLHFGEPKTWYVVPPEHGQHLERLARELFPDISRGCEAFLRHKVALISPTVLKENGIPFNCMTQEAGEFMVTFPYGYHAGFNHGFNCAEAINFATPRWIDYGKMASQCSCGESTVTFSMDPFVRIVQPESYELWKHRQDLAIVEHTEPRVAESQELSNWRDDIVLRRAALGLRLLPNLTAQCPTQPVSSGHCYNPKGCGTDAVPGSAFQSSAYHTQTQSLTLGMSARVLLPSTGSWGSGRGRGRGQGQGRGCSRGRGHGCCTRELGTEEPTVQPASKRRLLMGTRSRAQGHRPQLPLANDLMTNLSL
Test: qHTS Assay for Inhibitors of Human Jumonji Domain Containing 2E (JMJD2E)
Details: JMJD2E catalytic domain, FDH-coupled NADH fluorescence (FDH is formaldehyde dehydrogenase); series mostly up to 57.1 µM
Note: nearly all actives have a fitted effect of over 50% in size.
Potency is the fitted concentration of half-maximal effect; tags give direction and shape of the fitted curve.

| SMILES | Potency |
| --- | --- |
| COc1ccc(S(=O)(=O)NCCN2CCNC2=O)cc1OC | inactive |
| Cc1ccc(NC(=O)CN2C(=O)N/C(=C/c3cc(C)n(-c4ccc(C(=O)O)cc4)c3C)C2=O)cc1 | inconclusive: 28.2 µM [inhibitor, partial curve] |
| CCSc1nc(-c2ccccc2)c2cc(Cl)ccc2n1 | inconclusive: 25.1 µM [inhibitor, partial curve] |
| c1csc(C2C3=C(Nc4ncnn42)c2ccccc2OC3)c1 (configuration not stated) | inconclusive: 31.6 µM [inhibitor, single point] |
| Cc1ccc(/C=C/C(=O)Nc2cccc3cccnc23)o1 | inconclusive: 39.8 µM [inhibitor, single point] |
| COc1ccc(OC)c2c(N3CCN(C)CC3)cc(C(F)(F)F)nc12 | inconclusive: 28.2 µM [inhibitor, partial curve] |
| COc1ccc(C(C)=O)cc1CSc1nnc(Nc2ccc(C)cc2C)s1 | inactive |
| COc1ccc(C2c3[nH]c4ccccc4c3CCN2C(=O)c2ccc(=O)n(C)n2)c(F)c1 (configuration not stated) | inconclusive: 28.2 µM [inhibitor, single point] |
| CCOc1ccc2cc(S(=O)(=O)N3CCN(C)CC3)ccc2c1 | inconclusive: 25.1 µM [inhibitor, partial curve] |
| COc1ccc(C(=O)N/N=C(\C)c2ccc3c(c2)C2C=CCC2C(c2ccccc2)N3)cc1 (configuration not stated) | active: 20 µM |
| CSCCC(CO)NC(=O)OCc1ccccc1 (configuration not stated) | inconclusive: 35.5 µM [inhibitor, single point] |
| Cc1cccc2c1nc(-c1ccccc1)n1cnnc21 | inconclusive: 39.8 µM [inhibitor, single point] |
| O=C(CCCOc1ccccc1)Nc1ccc(S(=O)(=O)Nc2ccccn2)cc1 | inconclusive: 35.5 µM [inhibitor, single point] |
| Cc1ccc(Nc2c(-c3ccc(C)o3)nc3cnccn23)cc1 | inconclusive: 28.2 µM [inhibitor, partial curve] |
| CCC(C)N1C(=S)SC(C)(C)C1N(O)C(=O)NC1CCCCC1 (configuration not stated) | inconclusive: 6.31 µM [inhibitor, single point] |
| CCOc1ccc(C2CC(c3ccc(CC)cc3)n3nc(N)nc3N2)cc1 (configuration not stated) | inconclusive: 22.4 µM [inhibitor, partial curve] |
| CCOC(=O)N1CC=C2C(C#N)=C(N)C(C#N)(C#N)[C@H](c3ccsc3)[C@H]2C1 | inactive |
| COCCN1C(=O)C(=O)/C(=C(/O)c2cccc(OC)c2)C1c1ccncc1 (configuration not stated) | inconclusive: 25.1 µM [inhibitor, single point] |
| COc1cccc(CNC(=O)C2CCC(CNS(=O)(=O)c3cccc4nsnc34)CC2)c1 (configuration not stated) | inactive |
| COc1ccc(/C=C(\C#N)C(=O)OCC(=O)NC(C)c2ccccc2)cc1 (configuration not stated) | inconclusive: 35.5 µM [inhibitor, single point] |
| O=C(c1cccs1)N1CCN(Cc2ccncc2)CC1 | inconclusive: 39.8 µM [inhibitor, single point] |

| SMILES | Potency |
| --- | --- |
| CC(=O)n1cc(N(C(=O)CCl)c2ccc(Cl)cc2)c2ccccc21 | inconclusive: 39.8 µM [inhibitor, single point] |
| CCOC(=O)Cc1c(C)nc2cc(-c3ccc(C)cc3)[nH]n2c1=O | inconclusive: 28.2 µM [inhibitor, partial curve] |
| CN1CCc2c(sc(/N=C/c3c[nH]c4ccccc34)c2C(N)=O)C1 | inconclusive: 28.2 µM [inhibitor, partial curve] |
| CS(=O)(=O)c1ccc(-c2cn3cc(C(=O)O)ccc3n2)cc1 | inconclusive: 28.2 µM [inhibitor, partial curve] |
| COc1cccc2c(=O)n(CC(=O)N3CCC(C)CC3)ccc12 | inconclusive: 20 µM [inhibitor, partial curve] |
| NC(=O)/C(=N\OC(=O)c1ccco1)c1nc(-c2ccc(Br)cc2)cs1 | inconclusive: 39.8 µM [inhibitor, single point] |
| Cn1c(=O)c2c(nc(NCc3cccnc3)n2Cc2ccc(Cl)cc2)n(C)c1=O | inactive |
| Cc1ccccc1N=Cc1cc2c(cc1O)OC(N)=C(C#N)C2c1ccccc1 (configuration not stated) | inconclusive: 35.5 µM [inhibitor, single point] |
| Cc1ccc(C2C(C#N)=C(N)Oc3n[nH]c(-c4cccs4)c32)cc1 (configuration not stated) | active: 7.08 µM |
| Cc1ccc(N2C(=O)c3ccccc3C2C(=O)c2cc(C)ccc2O)cc1 (configuration not stated) | inconclusive: 28.2 µM [inhibitor, single point] |
| CC(=O)N1CCN(Cc2nc3cc(NC(=O)c4ccccc4C)ccc3n2C)CC1 | inconclusive: 39.8 µM [inhibitor, single point] |
| Cc1ccccc1CSc1nnc(-c2ccccc2)c(=O)[nH]1 | inconclusive: 28.2 µM [inhibitor, single point] |
| COc1cccc(-c2ccc(-c3noc(-c4cccs4)n3)c(OC)n2)c1 | inconclusive: 35.5 µM [inhibitor, partial curve] |
| COCCSc1nnc(NC(=O)C2CC(=O)N(c3ccc(C)cc3)C2)s1 (configuration not stated) | inconclusive: 39.8 µM [inhibitor, single point] |
| O=C(NCc1cccnc1)c1ccc(-c2ccc(Cl)cc2)o1 | inconclusive: 17.8 µM [inhibitor, partial curve] |
| CCOc1ccc2c(CC)cc(=O)oc2c1OCC | inconclusive: 28.2 µM [inhibitor, single point] |
| c1ccc(-n2ncc3c(NCCN4CCCCC4)ncnc32)cc1 | inconclusive: 25.1 µM [inhibitor, single point] |
| CCc1nnc(N2C(=O)c3cccc4cccc(c34)C2=O)s1 | inconclusive: 31.6 µM [inhibitor, partial curve] |
| Cc1cc(C)c2cc(C#N)c(SCC(=O)NCc3ccco3)nc2c1 | inconclusive: 39.8 µM [inhibitor, single point] |
| COC(=O)Nc1nnc(/C=C/c2ccccc2)s1 | inconclusive: 12.6 µM [inhibitor, partial curve] |
| COC(F)(C(=O)Nc1ccc2c(c1)C(=O)NC2=O)C(F)(F)F (configuration not stated) | inconclusive: 25.1 µM [inhibitor, single point] |
